Experimental data reported in PubChem BioAssay (NCI).
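Exposure lasted 48 hours, with cells grown in 96-well plates and compounds tested at five concentrations. Abbreviation: GI50, concentration required for 50% inhibition of growth. TGI: total growth inhibition.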

System: NCI-H322M lung
Assay: NCI tumour cell line growth inhibition, 48 h

CCCn1c(=O)c2[nH]c(-c3ccc(OCc4nc5ccccc5[nH]4)cc3)nc2n(CCC)c1=O
GI50: 19 µM
TGI: > 100 µM
